According to PubChem BioAssay AID886 (National Center for Advancing Translational Sciences (NCATS), 2007):
In all, about 73,000 compounds went through this assay and about 2,500 (3.4%) were called active. The shares of active, inactive and inconclusive entries below differ from those in the screen. Calls come from the whole dose curve; as a rule, active = well fitted inhibition curve with a large enough effect; inconclusive = small, poorly fitted or top-dose-only effect; inactive = no such curve, though single readings can be large or run the other way. A potency beside an inconclusive call is a rough fit, not a confirmed value.

molecular target: 3-hydroxyacyl-CoA dehydrogenase type-2 (Homo sapiens) (UniProt Q99714); test: qHTS Assay for Inhibitors of HADH2 (Hydroxyacyl-Coenzyme A Dehydrogenase, Type II); settings: recombinant HADH2, NADH fluorescence, beta-hydroxybutyryl-CoA; activity change, negative = inhibition: at 57.1 µM (top of the series); note: nearly all actives have a fitted effect of over 60% in size
Outline: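 Buffer 100 mM Tris-HCl pH 9.0/0.01% Tween-20; HADH2 20 nM; NAD+ 1 mM; beta-hydroxybutyryl-CoA 90 uM (all final). 15 min cpd preincubation, RT.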
% is set by controls: 0 for no effect and ±100 for the full control effect; potency is the fitted concentration of half-maximal effect; tags give direction and shape of the fitted curve.

Sequence of UniProt Q99714 (Q99714 whole entry, looked up): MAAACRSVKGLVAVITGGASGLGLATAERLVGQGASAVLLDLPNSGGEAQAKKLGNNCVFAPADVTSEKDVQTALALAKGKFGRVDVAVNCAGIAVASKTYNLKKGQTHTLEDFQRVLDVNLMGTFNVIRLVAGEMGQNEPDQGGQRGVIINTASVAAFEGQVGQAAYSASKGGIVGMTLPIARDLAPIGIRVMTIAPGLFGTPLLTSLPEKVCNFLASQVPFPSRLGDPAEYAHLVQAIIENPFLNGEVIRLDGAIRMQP
Sequence of UniProt Q99714 (Q99714 whole entry, looked up): as above

Structure (SMILES)	Potency	activity change, negative = inhibition
FC(F)C(F)(F)C1=CC(c2ccccc2)=NCCN1	inactive	–
Cc1oncc1C(=S)Nc1ccccc1	inconclusive: 31.6 µM [inhibitor, partial curve]	–
O=C1N=C(N2CCOCC2)S/C1=C1\C(=O)N(Cc2ccccc2)c2ccccc21	inactive	–
COc1ccc(-c2cc(C(=O)NCCN3CCOCC3)c3ccccc3n2)cc1	inconclusive: 39.8 µM [inhibitor, single point]	–
O=C(CCSCc1ccccc1F)N1CCN(c2ccccn2)CC1	inactive	–
Cc1cc(C)c2cc(CN(Cc3ccc4c(c3)OCO4)Cc3nnnn3Cc3ccco3)c(=O)[nH]c2c1	inconclusive: 25.1 µM [inhibitor, single point]	–
CC1=C(C(=O)O)N2C(=O)[C@@H](NC(=O)[C@@H](N)c3ccc(O)cc3)[C@@H]2SC1	inconclusive: 3.98 µM [inhibitor, full curve]	–
O=C(Oc1ccccc1)n1c(=O)oc2ccc(Cl)cc21	inactive	–
COc1ccc(-c2nnc3sc(C(C)N4C(=O)c5ccccc5C4=O)nn23)cc1 (centres undefined)	inactive	–
Cc1cccc(CNc2cc(-c3cccnc3)ncn2)c1	active: 31.6 µM	–
Nc1nc(-c2ccc3c(c2)CCCC3)cs1	inconclusive: 15.8 µM [inhibitor, partial curve]	–
COc1cccc(CN2CCCN(S(=O)(=O)c3ccc(Br)cc3)CC2)c1	inactive	–
CCOC(=O)c1[nH]c2ccc(OC)cc2c1NC(=O)C(C)N1CCC2(CC1)OCCO2 (centres undefined)	inconclusive: 39.8 µM [inhibitor, single point]	–
CN(C1CCCCC1)S(=O)(=O)c1ccc(NC(=O)c2ccc(Br)o2)cc1	inconclusive: 25.1 µM [inhibitor, partial curve]	–
CC1Cc2nc(SCC(=O)Nc3nccs3)n(C)c(=O)c2S1 (centres undefined)	inconclusive: 31.6 µM [inhibitor, single point]	–
CCCCn1c(=O)[nH]c(=O)c2c1nc(-c1ccc(C#N)cc1)n2C1CCCC1	active: 31.6 µM	–
Cc1c(NC(=O)CN2c3cccc4cccc(c34)S2(=O)=O)c(=O)n(-c2ccccc2)n1C	inconclusive: 39.8 µM [inhibitor, single point]	–
CCCC(=O)NCCc1c2n(c3ccc(OC)cc13)CCCc1ccccc1-2	inconclusive: 31.6 µM [inhibitor, single point]	–
CN(C)c1ccc(/C=N/n2ncc3ccccc32)cc1	inconclusive: 39.8 µM [inhibitor, single point]	–
CC(C)N(Cc1nc2ccccc2[nH]1)C(C)C	inactive	–
CCCCNC(=O)c1cc(-c2ccc(OC)cc2)on1	inactive	–
Cc1ccc(C2/C(=C(/O)c3ccc(Br)cc3)C(=O)C(=O)N2Cc2ccco2)o1 (centres undefined)	inconclusive: 31.6 µM [inhibitor, single point]	–
CC(=O)NCCNc1ncncc1-c1ccc(N(C)C)cc1	active: 20 µM	–
CCN1CCN(c2oc(-c3ccc(OC)cc3)nc2C#N)CC1	active: 31.6 µM	–
c1ccc(-c2nc3nonc3c3nc4ccccc4n23)cc1	inconclusive: 20 µM [inhibitor, single point]	–

Structure (SMILES)	Potency	activity change, negative = inhibition
COC(=O)C1=C(C)Nc2ccc(C)cc2S1	active: 3.16 µM	–
COc1ccc(NC(=O)c2ccco2)cc1NC(=O)c1ccco1	inactive	–
COc1cccc(N2C(=O)CC(Nc3ccc(N4CCOCC4)cc3)C2=O)c1 (centres undefined)	inconclusive: 15.8 µM [inhibitor, partial curve]	–
O=C(NCC(=O)N(CCN1CCOCC1)C(C(=O)NC1CCCC1)c1cccnc1)c1cccs1 (centres undefined)	inactive	–
CCOC(=O)CSC1=Nc2ccccc2C2=NC(CC(=O)NCc3ccccc3)C(=O)N12 (centres undefined)	active: 25.1 µM	–
Nc1cccc(-c2nc3ccc(N)cc3s2)c1	inconclusive: 39.8 µM [inhibitor, single point]	–
Cc1ccc(N=Nc2c(O)c(S(=O)(=O)O)cc3cc(S(=O)(=O)O)ccc23)c(C)c1	–	inactive: -4.56% [at 11.4 µM]
Cc1cc(NC(=O)CN2C(=O)C3CC=CCC3C2=O)no1 (centres undefined)	inactive	–
CC1=CC(c2ccccc2)n2nc(NS(=O)(=O)c3ccc(C)cc3)nc2N1 (centres undefined)	active: 25.1 µM	–
NC(=O)C1(N2CCCCC2)CCN(CC(=O)Nc2cc(Cl)ccc2Cl)CC1	inactive	–
CCN(C(=O)CSc1ccc2c(c1)OCCO2)C1CCS(=O)(=O)C1 (centres undefined)	inconclusive: 25.1 µM [inhibitor, single point]	–
CCCC[C@H]1C[C@@H]1[C@@H]1N(C(C)=O)[C@H](c2cccc(OC)c2)CC12CC2	inactive	–
Cc1cc(N2CCN(C)CC2)nc2ccc(NC(=O)c3ccc(Br)o3)cc12	inactive	–
CCOC(=O)c1nn(-c2ccccc2)c(=O)c2c(N)scc12	inconclusive: 0.398 µM [inhibitor, full curve]	–
O=C(O)CCCCCC[C@@H]1C(=O)NC(=O)N1CC[C@@H](O)C1CCCCC1	inconclusive: 0.005 µM [inhibitor, full curve, poor fit]	–
CC(=O)Nc1ccc(S(=O)(=O)Nc2nc3c(s2)CCCC3)cc1	inconclusive: 39.8 µM [inhibitor, single point]	–
N#CC1=C(N)Oc2n[nH]c(-c3cccs3)c2C1c1cccnc1 (centres undefined)	inconclusive: 15.8 µM [inhibitor, single point]	–
CCOC(=O)CCCc1sc(N)nc1-c1[nH]c(=O)[nH]c1C	inconclusive: 6.31 µM [inhibitor, full curve]	–
CC1=C(C)CS(=O)N(S(=O)(=O)c2ccc(Cl)cc2)C1 (centres undefined)	inconclusive: 0.0251 µM [inhibitor, full curve]	–
Cc1ccc(-n2c(SCC(=O)NCc3ccco3)nnc2-c2cccnc2)c(C)c1	inactive	–
CN1/C(=N\O)c2cccc3cccc1c23	active: 12.6 µM	–
CC12C=C(/C=C/CCc3ccco3)C(C)(C1)C(CCc1ccco1)CC2=O (centres undefined)	inconclusive: 5.01 µM [inhibitor, single point]	–
Cc1cc(-c2csc(N)n2)c(C)n1CCc1ccccc1	inconclusive: 0.794 µM [inhibitor, full curve]	–
COC(=O)[C@@H]1[C@@H](O)[C@]2(O)c3ccccc3O[C@]2(c2ccccc2)[C@H]1c1ccccc1	–	inactive: -4.5% [at 11.4 µM]
CC(C)(C)C(=O)/C(C#N)=c1\s/c(=C\c2ccncc2)c(=O)n1CCCN1CCOCC1	inconclusive: 12.6 µM [inhibitor, partial curve]	–

Structure (SMILES)	Potency	activity change, negative = inhibition
O=C1CSC(c2cn(-c3ccccc3)nc2-c2cc3ccccc3oc2=O)N1Cc1ccco1 (centres undefined)	active: 31.6 µM	–
CCCN1CCN(C(c2cc3cc4c(cc3[nH]c2=O)OCO4)c2nnnn2C(C)(C)C)CC1 (centres undefined)	active: 25.1 µM	–
CC1=C(C(=O)Nc2ccccc2)C(c2ccc(C)o2)n2c(s/c(=C\c3ccco3)c2=O)=N1 (centres undefined)	inconclusive: 39.8 µM [inhibitor, single point]	–
Cc1ccc(Cl)cc1-n1c(=O)cc(N2CCN(C(=O)c3ccco3)CC2)[nH]c1=O	inconclusive: 31.6 µM [inhibitor, single point]	–
CN(CC(=O)Nc1ccc(Cl)cc1)CC(=O)Nc1cc(Cl)ccc1C#N	inactive	–
CCOC(=O)CC(=O)CSc1nc(-c2cccnc2)ccc1C#N	inconclusive: 31.6 µM [inhibitor, single point]	–
FC(F)(F)c1ccccc1-c1cncnc1Nc1ccccc1	inconclusive: 39.8 µM [inhibitor, single point]	–
COc1ccc(C(CNC(=O)c2cccc(N(C)C)c2)N2CCCC2)cc1 (centres undefined)	inactive	–
COc1c(-c2ccc(O)c(O)c2)oc2cc(O)cc(O)c2c1=O	inconclusive: 10 µM [inhibitor, partial curve]	–
Nc1nc(NCCc2ccc(O)cc2)nc2nc(-c3ccco3)nn12	inconclusive: 31.6 µM [inhibitor, partial curve, poor fit]	–
O=C(Nc1ccc(C(=O)Oc2ccccc2)c(O)c1)c1ccco1	inactive	–
CCN=C(N)CSS(=O)(=O)O	inconclusive: 3.98 µM [inhibitor, single point]	–
Cc1oc(C(=O)O)cc1COc1ccc2c3c(c(=O)oc2c1C)CCCC3	–	inactive: -9.57% [at 11.4 µM]
Cc1cnc(CNc2nc(-c3cccnc3)nc3ccccc23)cn1	inconclusive: 12.6 µM [inhibitor, partial curve]	–
C[C@@H](C(=O)Nc1ccc2ccccc2c1)[C@@H]1C[C@@]1(C)[C@@H](NS(=O)(=O)c1ccc2ccccc2c1)c1ccccc1	inactive	–
O=C(Oc1ccc(-c2cnc3ccccc3n2)cc1)c1ccco1	inconclusive: 3.98 µM [inhibitor, single point]	–
C=CCn1c(-c2ccccc2)c[nH]c1=S	inconclusive: 25.1 µM [inhibitor, single point]	–
O=c1c2ccccc2sc2nc(C3CCCCC3)n(Cc3ccco3)c(=O)c12	inconclusive: 39.8 µM [inhibitor, single point]	–
O=C(CN1c2cccc3cccc(c23)S1(=O)=O)N1CCOCC1	active: 15.8 µM	–
COc1ccc2cc(C(=O)NC3CCCCC3)c(=O)oc2c1	inconclusive: 39.8 µM [inhibitor, single point]	–
CCOC(=O)c1ccc(N2C(=O)c3n[nH]c(C)c3C2c2ccc(O)cc2)cc1 (centres undefined)	inconclusive: 31.6 µM [inhibitor, single point]	–
O=C(O)c1ccc(Cl)c2c1C1C=CCC1C(c1ccccn1)N2 (centres undefined)	active: 3.98 µM	–
COc1ccc(S(=O)(=O)N(C)c2ccc(OCC(=O)Nc3cc(C)on3)cc2)cc1	inactive	–
CCC(CC)C(=O)Nc1nnc(-c2cccs2)s1	active: 25.1 µM	–
